Data from patent US20230250147A1, “GLP-1R AGONISTIC PEPTIDES WITH REDUCED ACTIVITY” (SANOFI, priority 2020, published 2023).

B1: 166 (protein)
chain: HGEGTFTSDKSKQLAKRLVREFIEWLIKGGHSSGKPPPKGGGGGGGSGGGGSGGGGSA[… human IgG4 Fc with changes …]GGGSGSAHPIPDSSPLLQFGGQVRQRYLYTDDACQTEAHLEIREDGTVGGAADQSPESLLQLKALKPGVIQILGVKTSRFLCQRPDGALYGSLHFDPEACSFRELLLEDGYNVYQSEAHGLPLHLPGCKSPHRDPAPRGPARFLPLPGLPPAPPEPPGILAPQPPDVGSSDPLSMVGSQGRSPSYAS
modifications: Fusion Protein
B2: 118 (protein)
chain: HGEGTFTSDKSQLLEKRLAHLFIEWLIAGGHSKIKYPPKGGGGGGGSGGGGSGGGGSA[… human IgG4 Fc with changes …]GGGSGSAHPIPDSSPLLQFGGQVRQRYLYTDDACQTEAHLEIREDGTVGGAADQSPESLLQLKALKPGVIQILGVKTSRFLCQRPDGALYGSLHFDPEACSFRELLLEDGYNVYQSEAHGLPLHLPGCKSPHRDPAPRGPARFLPLPGLPPAPPEPPGILAPQPPDVGSSDPLSMVGSQGRSPSYAS
modifications: Fusion Protein
B3: 183 (protein)
chain: HGEGTFTSDKSKQLAERLVREFIEWLIAGGHSSGKPPPKGGGGGGGSGGGGSGGGGSA[… human IgG4 Fc with changes …]GGGSGSAHPIPDSSPLLQFGGQVRQRYLYTDDACQTEAHLEIREDGTVGGAADQSPESLLQLKALKPGVIQILGVKTSRFLCQRPDGALYGSLHFDPEACSFRELLLEDGYNVYQSEAHGLPLHLPGCKSPHRDPAPRGPARFLPLPGLPPAPPEPPGILAPQPPDVGSSDPLSMVGSQGRSPSYAS
modifications: Fusion Protein
B4: 186 (protein)
chain: HGEGTFTSDKSKQLAERLAKLFIEWLIAGGHSSGKPPPKGGGGGGGSGGGGSGGGGSA[… human IgG4 Fc with changes …]GGGSGSAHPIPDSSPLLQFGGQVRQRYLYTDDACQTEAHLEIREDGTVGGAADQSPESLLQLKALKPGVIQILGVKTSRFLCQRPDGALYGSLHFDPEACSFRELLLEDGYNVYQSEAHGLPLHLPGCKSPHRDPAPRGPARFLPLPGLPPAPPEPPGILAPQPPDVGSSDPLSMVGSQGRSPSYAS
modifications: Fusion Protein
B5: 116 (protein)
chain: HGEGTFTSDKSQLLEKRLAHLFIEWLIAGGPSKGKPPPKGGGGGGGSGGGGSGGGGSA[… human IgG4 Fc with changes …]GGGSGSAHPIPDSSPLLQFGGQVRQRYLYTDDACQTEAHLEIREDGTVGGAADQSPESLLQLKALKPGVIQILGVKTSRFLCQRPDGALYGSLHFDPEACSFRELLLEDGYNVYQSEAHGLPLHLPGCKSPHRDPAPRGPARFLPLPGLPPAPPEPPGILAPQPPDVGSSDPLSMVGSQGRSPSYAS
modifications: Fusion Protein
B6: 123 (protein)
chain: HGEGTFTSDKSKLLEKRLAHLFIEWLIKGGHSSIKPPPKGGGGGGGSGGGGSGGGGSA[… human IgG4 Fc with changes …]GGGSGSAHPIPDSSPLLQFGGQVRQRYLYTDDACQTEAHLEIREDGTVGGAADQSPESLLQLKALKPGVIQILGVKTSRFLCQRPDGALYGSLHFDPEACSFRELLLEDGYNVYQSEAHGLPLHLPGCKSPHRDPAPRGPARFLPLPGLPPAPPEPPGILAPQPPDVGSSDPLSMVGSQGRSPSYAS
modifications: Fusion Protein
B7: 185 (protein)
chain: HGEGTFTSDKSKQLAERLAREFIEWLIAGGHSSGKPPPKGGGGGGGSGGGGSGGGGSA[… human IgG4 Fc with changes …]GGGSGSAHPIPDSSPLLQFGGQVRQRYLYTDDACQTEAHLEIREDGTVGGAADQSPESLLQLKALKPGVIQILGVKTSRFLCQRPDGALYGSLHFDPEACSFRELLLEDGYNVYQSEAHGLPLHLPGCKSPHRDPAPRGPARFLPLPGLPPAPPEPPGILAPQPPDVGSSDPLSMVGSQGRSPSYAS
modifications: Fusion Protein
B8: 168 (protein)
chain: HGEGTFTSDLSKQLAKRLVREFIEWLIKGGHSSGKPPPKGGGGGGGSGGGGSGGGGSA[… human IgG4 Fc with changes …]GGGSGSAHPIPDSSPLLQFGGQVRQRYLYTDDACQTEAHLEIREDGTVGGAADQSPESLLQLKALKPGVIQILGVKTSRFLCQRPDGALYGSLHFDPEACSFRELLLEDGYNVYQSEAHGLPLHLPGCKSPHRDPAPRGPARFLPLPGLPPAPPEPPGILAPQPPDVGSSDPLSMVGSQGRSPSYAS
modifications: Fusion Protein
B9: 169 (protein)
chain: HGEGTFTSDLSKQLAKRLVREFIEWLIEGGHSSGKPPPKGGGGGGGSGGGGSGGGGSA[… human IgG4 Fc with changes …]GGGSGSAHPIPDSSPLLQFGGQVRQRYLYTDDACQTEAHLEIREDGTVGGAADQSPESLLQLKALKPGVIQILGVKTSRFLCQRPDGALYGSLHFDPEACSFRELLLEDGYNVYQSEAHGLPLHLPGCKSPHRDPAPRGPARFLPLPGLPPAPPEPPGILAPQPPDVGSSDPLSMVGSQGRSPSYAS
modifications: Fusion Protein
B10: 108 (protein)
chain: YGEGTFTSDKSQLLEERLVHLFIEWLIAGGHSKIKPPPKGGGGGGGSGGGGSGGGGSA[… human IgG4 Fc with changes …]GGGSGSAHPIPDSSPLLQFGGQVRQRYLYTDDACQTEAHLEIREDGTVGGAADQSPESLLQLKALKPGVIQILGVKTSRFLCQRPDGALYGSLHFDPEACSFRELLLEDGYNVYQSEAHGLPLHLPGCKSPHRDPAPRGPARFLPLPGLPPAPPEPPGILAPQPPDVGSSDPLSMVGSQGRSPSYAS
modifications: Fusion Protein
B11: 113 (protein)
chain: YGEGTFTSDKSQLLEKRLAHLFIEWLIKGGHSSIRPPPKGGGGGGGSGGGGSGGGGSA[… human IgG4 Fc with changes …]GGGSGSAHPIPDSSPLLQFGGQVRQRYLYTDDACQTEAHLEIREDGTVGGAADQSPESLLQLKALKPGVIQILGVKTSRFLCQRPDGALYGSLHFDPEACSFRELLLEDGYNVYQSEAHGLPLHLPGCKSPHRDPAPRGPARFLPLPGLPPAPPEPPGILAPQPPDVGSSDPLSMVGSQGRSPSYAS
modifications: Fusion Protein
B12: 184 (protein)
chain: HGEGTFTSDKSKQLAERLVKLFIEWLIAGGHSSGKPPPKGGGGGGGSGGGGSGGGGSA[… human IgG4 Fc with changes …]GGGSGSAHPIPDSSPLLQFGGQVRQRYLYTDDACQTEAHLEIREDGTVGGAADQSPESLLQLKALKPGVIQILGVKTSRFLCQRPDGALYGSLHFDPEACSFRELLLEDGYNVYQSEAHGLPLHLPGCKSPHRDPAPRGPARFLPLPGLPPAPPEPPGILAPQPPDVGSSDPLSMVGSQGRSPSYAS
modifications: Fusion Protein
B13: 106 (protein)
chain: HGEGTFTSDKSQLLEERLAHLFIEWLIAGGHSSGRPPPKGGGGGGGSGGGGSGGGGSA[… human IgG4 Fc with changes …]GGGSGSAHPIPDSSPLLQFGGQVRQRYLYTDDACQTEAHLEIREDGTVGGAADQSPESLLQLKALKPGVIQILGVKTSRFLCQRPDGALYGSLHFDPEACSFRELLLEDGYNVYQSEAHGLPLHLPGCKSPHRDPAPRGPARFLPLPGLPPAPPEPPGILAPQPPDVGSSDPLSMVGSQGRSPSYAS
modifications: Fusion Protein
B14: 122 (protein)
chain: HGEGTFTSDKSQLLEKRLAHLFIEWLIAGGHSSIKPPPKGGGGGGGSGGGGSGGGGSA[… human IgG4 Fc with changes …]GGGSGSAHPIPDSSPLLQFGGQVRQRYLYTDDACQTEAHLEIREDGTVGGAADQSPESLLQLKALKPGVIQILGVKTSRFLCQRPDGALYGSLHFDPEACSFRELLLEDGYNVYQSEAHGLPLHLPGCKSPHRDPAPRGPARFLPLPGLPPAPPEPPGILAPQPPDVGSSDPLSMVGSQGRSPSYAS
modifications: Fusion Protein
B15: 167 (protein)
chain: HGEGTFTSDKSKQLAKRLVRHFIEWLIKGGHSSGKPPPKGGGGGGGSGGGGSGGGGSA[… human IgG4 Fc with changes …]GGGSGSAHPIPDSSPLLQFGGQVRQRYLYTDDACQTEAHLEIREDGTVGGAADQSPESLLQLKALKPGVIQILGVKTSRFLCQRPDGALYGSLHFDPEACSFRELLLEDGYNVYQSEAHGLPLHLPGCKSPHRDPAPRGPARFLPLPGLPPAPPEPPGILAPQPPDVGSSDPLSMVGSQGRSPSYAS
modifications: Fusion Protein
B16: 181 (protein)
chain: HGEGTFTSDKSKQLAKRLAQEFIEWLIKGGHSSGKPPPKGGGGGGGSGGGGSGGGGSA[… human IgG4 Fc with changes …]GGGSGSAHPIPDSSPLLQFGGQVRQRYLYTDDACQTEAHLEIREDGTVGGAADQSPESLLQLKALKPGVIQILGVKTSRFLCQRPDGALYGSLHFDPEACSFRELLLEDGYNVYQSEAHGLPLHLPGCKSPHRDPAPRGPARFLPLPGLPPAPPEPPGILAPQPPDVGSSDPLSMVGSQGRSPSYAS
modifications: Fusion Protein
B17: 121 (protein)
chain: HGEGTFTSDKSQLLEKRLAHLFIEWLIAGGPSSGRYPPKGGGGGGGSGGGGSGGGGSA[… human IgG4 Fc with changes …]GGGSGSAHPIPDSSPLLQFGGQVRQRYLYTDDACQTEAHLEIREDGTVGGAADQSPESLLQLKALKPGVIQILGVKTSRFLCQRPDGALYGSLHFDPEACSFRELLLEDGYNVYQSEAHGLPLHLPGCKSPHRDPAPRGPARFLPLPGLPPAPPEPPGILAPQPPDVGSSDPLSMVGSQGRSPSYAS
modifications: Fusion Protein
B18: 182 (protein)
chain: HGEGTFTSDKSKQLAERLVRLFIEWLIAGGHSSGKPPPKGGGGGGGSGGGGSGGGGSA[… human IgG4 Fc with changes …]GGGSGSAHPIPDSSPLLQFGGQVRQRYLYTDDACQTEAHLEIREDGTVGGAADQSPESLLQLKALKPGVIQILGVKTSRFLCQRPDGALYGSLHFDPEACSFRELLLEDGYNVYQSEAHGLPLHLPGCKSPHRDPAPRGPARFLPLPGLPPAPPEPPGILAPQPPDVGSSDPLSMVGSQGRSPSYAS
modifications: Fusion Protein

Biological target: T1, Human GLP-1R (Homo sapiens, UniProt P43220)
T1 construct: expressed in transfected cells; host or cells: HEK-293
Test: HTRF cAMP assay in HEK-293 cells, human GLP-1R
Type: cell-based
Method: Recombinant HEK-293 cells were grown in T175 culture flasks placed at 37° C. to near confluence in medium (DMEM with 10% FBS) and collected in 2 mL vials in cell culture medium containing 10% DMSO in concentrations of 1-5×10^7 cells/mL. Each vial contained 1.8 mL cell suspension. The vials were slowly frozen to −80° C. in an isopropanol chamber, and then transferred to liquid nitrogen for long term storage.
Prior to their use, frozen cells were thawed quickly at 37° C., washed with 20 mL cell buffer (1×HBSS; 20 mM HEPES, 0.1% BSA) and centrifuged for 5 minutes at 900 rpm. Cells were resuspended in assay buffer (cell buffer plus 2 mM IBMX) and adjusted to a cell density of 1×10^6 cells/mL. For measurement, 5 μL cell suspension (final 5×10^3 cells/well) and 5 μL of test compound were added to a well of a 384-well plate, followed by incubation for 30 minutes at room temperature. […] The cAMP content of cells was determined using a kit from Cisbio Corp. (cat. no. 62AM4PEC) based on Homogenous Time Resolved Fluorescence (HTRF).

T1 sequence (P43220 24-463): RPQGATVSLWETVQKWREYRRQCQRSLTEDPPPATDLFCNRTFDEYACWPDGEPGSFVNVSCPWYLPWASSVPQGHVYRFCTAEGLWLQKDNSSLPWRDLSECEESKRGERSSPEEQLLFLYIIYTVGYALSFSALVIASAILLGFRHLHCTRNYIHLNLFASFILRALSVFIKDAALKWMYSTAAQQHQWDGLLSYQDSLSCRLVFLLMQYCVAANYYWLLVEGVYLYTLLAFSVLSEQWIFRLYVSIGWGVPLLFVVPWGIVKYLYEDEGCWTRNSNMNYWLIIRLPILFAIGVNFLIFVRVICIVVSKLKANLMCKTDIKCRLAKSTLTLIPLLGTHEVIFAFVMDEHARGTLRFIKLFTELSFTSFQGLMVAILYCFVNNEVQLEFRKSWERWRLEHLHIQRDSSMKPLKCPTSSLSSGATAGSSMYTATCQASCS

| EC50 [nM] | Molecule |
| --- | --- |
| 0.16 | B1 |
| 0.0183 | B2 |
| 0.0738 | B3 |
| 0.124 | B4 |
| 0.0106 | B5 |
| 0.0127 | B6 |
| 0.0138 | B7 |
| 0.0461 | B8 |
| 0.0596 | B9 |
| 0.326 | B10 |
| 0.159 | B11 |
| 0.216 | B12 |
| 0.00966 | B13 |
| 0.0145 | B14 |
| 0.309 | B15 |
| 0.137 | B16 |
| 0.0119 | B17 |
| 0.123 | B18 |
